Assay results published in patent publication US20250205158A1, “BIODEGRADABLE LIPIDS AND FORMULATIONS FOR DELIVERY OF MRNA” (Massachusetts Institute of Technology, priority 2023, published 2025).

System: mice
Assay: DiI-labeled LNP uptake in muscle and local draining lymph node cells (flow cytometry)
Details: female BALB/cJ mice, IM, fluorescently labeled LNPs
Excerpt: Immune cell uptake, expression, and germinal center responses. To understand the factors contributing to the enhanced vaccine response of AMG1541 LNPs, the local biodistribution and resultant protein expression following intramuscular injection was characterized. Immune cell uptake following vaccination is the first step in initiating vaccine responses as it activates innate immune pathways, facilitating further immune cell recruitment and activation.^40-42 The uptake of LNPs was characterized by dosing female BALB/cJ mice IM with fluorescently labeled AMG1541 or SM-102 LNPs and then isolating cells from the muscle and local draining lymph node (LDLN) (FIGS. 15A-15C).
LNP biodistribution and expression characterization.

CCCCCC/C=C\CCCC(=O)OCC(O)CN1CCN(CC(O)COC(=O)CCC/C=C\CCCCCC)CCN(CC(O)COC(=O)CCC/C=C\CCCCCC)CCN(CC(O)COC(=O)CCC/C=C\CCCCCC)CCN(CC(O)COC(=O)CCC/C=C\CCCCCC)CCN(CC(O)COC(=O)CCC/C=C\CCCCCC)CC1 (centres unmarked) [AMG1541]
LNP uptake in cells isolated from muscle versus SM-102: higher uptake in CD45- cells, macrophages, and neutrophils
LNP uptake in cells of the local draining lymph node versus SM-102: significantly higher uptake in several key APC subsets
